Source: PubChem BioAssay AID488969 (Vanderbilt High Throughput Screening Facility, 2010)
The full ranking holds about 110,000 compounds; the median of “z-score” is about -0.1, and the highest 2% start at about 2. This is one part of the list. Calls of active or inactive are those of the source.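 How the source made its calls: active means z-score in the third read window above 3 or below -3; inactive means the rest.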

The molecules below were run against Metabotropic glutamate receptor 8 (Rattus norvegicus) (UniProt P70579) (assay: rat mGluR8 modulators via GIRK flux, primary screen, cell-based, thallium flux, HTS (AID 488969)). Details: HEK293 rat mGluR8, GIRK (G protein-gated inwardly rectifying potassium channel) thallium flux, FluoZin2; at 10 µM; stronger effect = higher value; submaximal glutamate (EC20) added with thallium.
Sequence of UniProt P70579 (P70579 whole entry, looked up): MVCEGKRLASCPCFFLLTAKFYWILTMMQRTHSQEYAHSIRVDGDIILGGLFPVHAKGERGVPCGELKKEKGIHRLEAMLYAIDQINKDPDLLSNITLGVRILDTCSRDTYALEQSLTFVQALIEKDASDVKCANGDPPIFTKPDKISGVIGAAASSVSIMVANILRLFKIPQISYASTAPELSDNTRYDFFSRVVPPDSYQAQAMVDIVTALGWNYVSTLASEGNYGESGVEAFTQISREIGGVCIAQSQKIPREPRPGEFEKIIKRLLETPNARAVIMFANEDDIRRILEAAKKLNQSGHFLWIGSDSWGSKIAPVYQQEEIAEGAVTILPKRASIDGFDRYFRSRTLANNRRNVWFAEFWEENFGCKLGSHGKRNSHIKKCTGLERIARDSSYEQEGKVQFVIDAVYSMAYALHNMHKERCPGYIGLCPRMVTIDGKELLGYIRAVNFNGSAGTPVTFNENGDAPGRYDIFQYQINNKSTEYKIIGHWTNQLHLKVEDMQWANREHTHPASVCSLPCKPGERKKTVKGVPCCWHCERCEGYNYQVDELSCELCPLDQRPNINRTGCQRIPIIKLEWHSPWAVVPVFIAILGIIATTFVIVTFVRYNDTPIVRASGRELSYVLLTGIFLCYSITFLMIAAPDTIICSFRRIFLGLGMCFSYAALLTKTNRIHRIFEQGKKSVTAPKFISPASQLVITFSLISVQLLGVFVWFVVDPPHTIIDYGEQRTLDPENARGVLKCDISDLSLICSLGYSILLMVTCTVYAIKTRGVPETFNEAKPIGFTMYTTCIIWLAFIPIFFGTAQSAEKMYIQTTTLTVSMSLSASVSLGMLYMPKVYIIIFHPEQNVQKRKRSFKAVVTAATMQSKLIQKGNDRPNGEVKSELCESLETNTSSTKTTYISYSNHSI
For `CCOC(=O)c1c(C(C#N)C#N)cc(C)nc1C`, the z-score was 0.478. With `O=C1NN(c2ccccc2)C(=O)/C1=C\c1cccn1-c1ccc(Cl)c([N+](=O)[O-])c1` the z-score was -0.471. For `Cc1c2c(nc3c(C)cccc13)OC(C)C2` (stereo not given), the z-score was -0.282. Molecule `CCOC(=O)c1cnc2cc(-c3ccc(C(C)(C)C)cc3)nn2c1N` has a z-score of -0.286. In the case of `COC(=O)c1sc(NC(=O)COc2ccc(C)cc2)nc1C`, the z-score was 0.145. For `Cc1ccc(OCCN2CCN(c3ncnc4sc(C)c(C)c34)CC2)cc1`, the z-score was -2.57. `CCSc1nc(C2CC2)cc(-c2cccs2)c1C#N` was tested, and the z-score was -0.0632. With `COC(=O)c1c(NC(=O)c2c(C)noc2C)sc2c1CCCCCC2` the z-score was -0.379. Molecule `CSc1ccccc1NS(=O)(=O)c1ccc2c(c1)OCCO2` has a z-score of -0.0827. Molecule `COc1ccc(NC(=O)/C=C/c2ccccc2[N+](=O)[O-])c(OC)c1` has a z-score of -0.345. Work on `Cc1cccc(C)c1Nc1nnc(SCC(=O)c2ccc(Br)s2)s1` yielded a z-score of 0.224. `CCOC(=O)c1ccc(NC(=S)N(CCCN2CCCC2)Cc2ccco2)cc1` showed a z-score of -0.178. `Cc1cccc(Oc2cc(NC(=O)c3ccccc3)cc([N+](=O)[O-])c2)c1` was tested, and the z-score was -0.382. `CSc1cccc(NC(=O)CN(C2CCCCC2)S(C)(=O)=O)c1` was tested, and the z-score was -0.0458. `Cn1c(Sc2ccccc2Cl)c(C=O)c2ccccc21` showed a z-score of -0.196. `O=C(CN1C(=O)S/C(=C/c2ccc(N3CCOCC3)cc2)C1=O)N1CCOCC1` was tested, and the z-score was -0.199. In the case of `COC(=O)CNC(=O)CN1c2cccc3cccc(c23)S1(=O)=O`, the z-score was -0.0323. In the case of `COC(=O)c1ccc(CNC(=O)COC(=O)C2CCC(C(C)(C)C)CC2)cc1` (stereo not given), the z-score was -0.626. With `CC(C)(C)C(=O)NC(NC(=O)C(C)(C)C)c1ccc([N+](=O)[O-])cc1` the z-score was -0.235. `CCCCOc1ccc(-c2nnn(C(C)C(=O)OCC)n2)cc1` (stereo not given) was tested, and the z-score was -0.5. With `OCCN=Cc1c(O)[nH]c2ccccc12` the z-score was -0.00527. `COc1cc(OC)cc(C(=O)NCC(=O)N2CCCCC2)c1` gave a z-score of 0.281. `COc1cccc(C(=O)NCC(=O)N/N=C/c2cccc(OC(=O)c3ccc([N+](=O)[O-])cc3)c2)c1` gave a z-score of -0.566. For `CS(=O)(=O)c1ccc2nc(NC(=O)C3C4C=CC(C4)C3C(=O)O)sc2c1` (stereo not given), the z-score was active: 4.92. In the case of `COc1ccccc1N1C(N)=NC(N)=NC1(C)C`, the z-score was -0.0746. For `O=C(N/N=C1\CCCc2ccccc21)c1ccc([N+](=O)[O-])cc1`, the z-score was 1.47. Molecule `O=C(COC(=O)[C@H](Cc1ccccc1)NC(=O)c1cccs1)NC1CC1` has a z-score of -0.0981. `Cc1cc2nnc(SCCCCN3C(=O)c4ccccc4C3=O)n2c2ccccc12` showed a z-score of -0.317. `CCOC(=O)c1cc(-c2ccc(C)o2)n[nH]1` gave a z-score of 0.0347. For `CCN(CC)C(=O)N1c2ccccc2C=Cc2ccccc21`, the z-score was -0.214. With `CCOC(=O)c1c(NC(=O)C2C3C=CC(C3)C2C(=O)O)sc2c1CCC(CC)C2` (stereo not given) the z-score was active: 3.71. `CCSc1ccccc1C(=O)NCCCn1ccnc1` showed a z-score of -0.449. `CN(C(=O)c1cc2n(n1)C(C(F)(F)F)CC(c1ccco1)N2)c1ccc(OC(F)(F)F)cc1` (stereo not given) showed a z-score of -0.386. In the case of `Cc1cc(C)c(C#N)c(SCC(=O)Nc2nnc(-c3ccccc3)s2)n1`, the z-score was -0.27. Work on `O=C(CSCc1ccc([N+](=O)[O-])cc1)NN=C1CCCCCC1` yielded a z-score of 0.0282. `CC(C)(CO)Nc1nc(Nc2ccccc2)nc(Nc2ccccc2)n1` gave a z-score of -0.601. For `CCn1c(=O)cc(SCC(=O)Nc2cccnc2)c2ccccc21`, the z-score was 0.264. In the case of `CCCOc1ccc(/C(O)=C2/C(=O)C(=O)N(CCN(C)C)C2c2ccc(OC)c(OC)c2)cc1` (stereo not given), the z-score was 0.296. Work on `COc1ccc(CC(=O)OCC(=O)NC(=O)NC23CC4CC(CC(C4)C2)C3)cc1` yielded a z-score of -0.113. `CCOC(=O)c1nc(S(C)(=O)=O)ncc1Cl` showed a z-score of -0.262. `CC(C)C(NC=C1C(=O)OC(C)(C)OC1=O)C(=O)O` (stereo not given) showed a z-score of -0.217. With `COc1cc(/C=N/NC(=O)COc2ccc(C)cc2)ccc1OC(=O)c1cccs1` the z-score was -0.0521. Work on `CCC1(C)Cc2c(sc3nc(SCC(=O)O)[nH]c(=O)c23)CO1` (stereo not given) yielded a z-score of -0.292. With `Cc1ccc(C(=O)NCC(=O)OCC(=O)NC2CCS(=O)(=O)C2)cc1C` (stereo not given) the z-score was -0.114. `O=C(CCc1nc(-c2ccccc2)no1)NC1CCCCC1` showed a z-score of 0.0483. `C=C(C)C1CC=C(C)/C(=N\NC(=O)CNc2ccccc2OC)C1` (stereo not given) was tested, and the z-score was 0.0831. Work on `O=C(O)c1ccc2c(c1)C(=O)N(C(Cc1ccccc1)C(=O)O)C2=O` (stereo not given) yielded a z-score of -1.48. For `C/C(=N\NC(=O)c1ccccc1C)c1ccc(N2CCOCC2)cc1`, the z-score was -0.197. Work on `O=C(CNC(=O)c1ccco1)OCc1ccc(C(=O)Oc2ccccc2)cc1` yielded a z-score of -1.07. Work on `CC1CCCN(C2=C(NS(=O)(=O)c3ccc(Cl)cc3)C(=O)c3ccccc3C2=O)C1` (stereo not given) yielded a z-score of -0.0456. With `COc1ccc2oc(C)c(C(=O)Cn3ccnc3)c2c1` the z-score was -0.317. Molecule `CC(C)CNC(=O)CN(C1CCCCC1)S(C)(=O)=O` has a z-score of -0.0371. Work on `CCCCCCCCNc1ncnc2ccccc12` yielded a z-score of 0.00268. With `Cc1ccc2c3c(cccc13)-c1ccccc1C2=O` the z-score was -0.136. In the case of `Cc1cccc(OCCNC(=O)c2ncn[nH]2)c1`, the z-score was 0.191. For `CN(C)C(=O)N1CCC(C(=O)NCc2ccc3c(c2)OCO3)CC1`, the z-score was 0.171. Work on `Cc1cccn2c(NC(=O)c3cccs3)c(-c3ccccc3)nc12` yielded a z-score of -0.404. `CCc1ccc(NC(=O)COn2nnc3ccc(S(=O)(=O)N(C)C)cc32)cc1` was tested, and the z-score was -0.27. With `C=CCn1c(CSc2nc3ccccc3s2)nnc1SCC(=O)NCCN1CCOCC1` the z-score was 0.312. `CSc1cc(-c2ccc(Cl)cc2)c(C(=O)N2CCCC2)s1` was tested, and the z-score was 1.8. `O=C(Nc1cccc(S(=O)(=O)Nc2ccc(Cl)cc2)c1)c1cc2c(s1)CCCC2` was tested, and the z-score was -0.189. In the case of `COC(=O)c1ccccc1NC(=O)c1ccc(COc2ccc3c(c2)CCC3)cc1`, the z-score was -0.271. In the case of `COc1ccc(/C=C/C(=O)c2nc3ccccc3n2CC(=O)c2ccc(OC)cc2)cc1`, the z-score was -1.11. For `COc1ccccc1N1CCN(C(=O)c2cc(-c3ccc(C)cc3)on2)CC1`, the z-score was -0.356. In the case of `COCCCNCCOCCOc1ccc(C)cc1Br`, the z-score was -0.0942. With `O=C(COc1ccc(Cl)cc1Cl)NC(=O)N1CCOCC1` the z-score was 0.0554. For `Clc1ccccc1-c1nc(-c2cccnc2)no1`, the z-score was 0.216. In the case of `COc1ccc2c(c1)c(C(O)CN1CCN(Cc3ccc4c(c3)OCO4)CC1)c(C)n2C` (stereo not given), the z-score was -0.597. In the case of `CC(C)(C)C(=O)c1sc2nc(-c3cccs3)cc(C(F)(F)F)c2c1N`, the z-score was -0.0733. `CN(CC(=O)O/N=C(\N)c1ccccn1)S(=O)(=O)c1cc(Cl)ccc1Cl` was tested, and the z-score was -0.477.
